Measurements from the supplement of paper PMC3334620.
Over roughly 33,000 sequences, “E-score (-0.5 to 0.5)” has its median near -0.016; the highest 2% begin near 0.32. The list shows a part of the results.

target: T1, Stp1 (UniProt B3LFK1); test: PBM E-score (8-mer binding enrichment) (E-score (-0.5 to 0.5)); higher = stronger / more preferred TF binding; most listed sequences are background and not binding sites; conditions: protein concentration: 200 nM; construct: GST-full length
T1 sequence: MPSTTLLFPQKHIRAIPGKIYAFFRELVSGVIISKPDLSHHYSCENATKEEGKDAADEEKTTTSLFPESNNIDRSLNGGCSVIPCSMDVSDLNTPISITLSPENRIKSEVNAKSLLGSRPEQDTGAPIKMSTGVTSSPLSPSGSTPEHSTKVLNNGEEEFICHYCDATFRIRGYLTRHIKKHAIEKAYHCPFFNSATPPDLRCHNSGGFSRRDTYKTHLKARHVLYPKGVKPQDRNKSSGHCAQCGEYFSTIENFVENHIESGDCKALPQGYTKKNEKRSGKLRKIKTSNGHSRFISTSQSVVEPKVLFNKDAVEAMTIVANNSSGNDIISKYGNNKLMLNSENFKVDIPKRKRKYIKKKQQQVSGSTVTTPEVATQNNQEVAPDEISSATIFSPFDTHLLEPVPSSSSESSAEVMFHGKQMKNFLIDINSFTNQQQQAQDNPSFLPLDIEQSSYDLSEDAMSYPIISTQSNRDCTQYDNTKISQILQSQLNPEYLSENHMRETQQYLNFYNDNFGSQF
Outline: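 Using PURExpress in vitro transcription/translation, GST-tagged yeast transcription factors were made in full-length or DNA-binding-domain form. These were applied at about 100-200 nM to double-stranded universal all-10-mer Agilent arrays, and bound protein was detected with fluorescent anti-GST. Scans were normalised with masliner before the Universal PBM Analysis Suite assigned E-scores to ungapped eight-base words pooled with their reverse complements.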

Row | Sequence | PBM E-score
1 | AGGACATG | -0.199
2 | TCGAGCAA | 0.231
3 | CCTTAAGC | -0.014
4 | CGACGAGC | -0.0983
5 | ACTGGGGC | -0.164
6 | TCGGAGAA | -0.0369
7 | AACAATCG | -0.026
8 | CGGTCTAC | -0.0644
9 | GATAACCA | -0.136
10 | CGTTAGTA | 0.301
11 | ATAGGCGA | -0.0945
12 | GGCTGACC | -0.271
13 | CAGCGTTA | 0.0111
14 | TAAATAAA | 0.196
15 | GACAGGTC | -0.394
16 | GCAGGCGA | 0.0012
17 | CGGACTTA | -0.241
18 | AACACGGA | 0.199
19 | ATAGTGCG | 0.175
20 | CATCTACC | -0.11
21 | CCGGCCAC | -0.189
22 | AAGGGCGC | 0.354
23 | AGGTATGC | 0.0967
24 | ACTAAGTA | 0.0607
25 | ACTAGTTG | -0.129

Row | Sequence | PBM E-score
26 | GTACAGAC | -0.0182
27 | CACAGTAG | 0.173
28 | CCATCTTA | 0.13
29 | CGAGGGAG | -0.172
30 | AATCGGTC | -0.0468
31 | CTCAAACC | 0.0212
32 | AATGGCGG | -0.116
33 | ATGCTGCG | -0.0894
34 | CCCTCTGC | -0.196
35 | CCGATACA | -0.0287
36 | CCCTCTAG | -0.219
37 | CAAAATTG | 0.0955
38 | CACAATGA | 0.0109
39 | ATCCATCG | -0.177
40 | ATGTAGAG | -0.173
41 | GACTCGCA | -0.204
42 | GATAACGA | 0.00088
43 | CAGCAGCA | 0.146
44 | AAGTCTGG | -0.218
45 | ATCATATG | 0.0474
46 | AGTCTGCA | -0.258
47 | CATACTCA | -0.0504
48 | CTTTAAAC | 0.138
49 | CGGATGAA | 0.134
50 | GCTCTTCA | -0.0619

Row | Sequence | PBM E-score
51 | TAGGGGCA | -0.352
52 | GACTGCGC | -0.0492
53 | AACCCGGC | -0.00624
54 | AGTCGGGA | -0.234
55 | CCATAGCA | -0.101
56 | ACCTCGTA | -0.0684
57 | CGCCACAC | 0.324
58 | ATAAAACA | 0.199
59 | ATATAAGA | 0.26
60 | AAATAAGA | 0.0887
61 | ACCCGTTA | -0.0466
62 | GCAGGACA | -0.0503
63 | CCTCGCTA | -0.231
64 | CTGTTACA | 0.0257
65 | ACCCATAG | -0.382
66 | TCAGCCGA | -0.0181
67 | AAGACCTC | -0.283
68 | CTCAAGGA | -0.11
69 | AAGCGCTG | -0.0462
70 | AGCTAACG | -0.126
71 | AGTGATAA | -0.023
72 | AAAGCAAG | 0.136
73 | AAGATTCG | 0.191
74 | GCTTAAGA | 0.227
75 | AGGCCAAA | 0.0796

Row | Sequence | PBM E-score
76 | CAAGGAAC | -0.0354
77 | CTGTCGAA | 0.0374
78 | CGTTTGCA | 0.0874
79 | CAATGCTA | -0.0491
80 | CCGCTCGC | 0.199
81 | AACAAATG | 0.0454
82 | CCTTTTAC | 0.136
83 | GGACATAC | 0.0525
84 | ACTTAGAT | 0.167
85 | CTTCCAAA | 0.0921
86 | CGGAGCTC | -0.272
87 | CCCATGAA | -0.0263
88 | ATGCAGAC | 0.0383
89 | TCAGGCAA | -0.0931
90 | CATAGAAC | -0.0111
91 | GTGCTCTA | -0.198
92 | AGATAACA | 0.13
93 | CAGCTAGA | 0.102
94 | AACGTTTG | -0.142
95 | GAAGATCC | -0.186
96 | CCCGCGAA | -0.0469
97 | ATCGTAAG | -0.0327
98 | CGTGCATC | 0.0537
99 | AGTAAAAC | 0.119
100 | ACTGCCGC | 0.412

Row | Sequence | PBM E-score
101 | AACCCAGA | -0.0382
102 | ATTCCTTA | 0.0713
103 | ACCATTAA | 0.112
104 | AACTAATG | 0.11
105 | CCTGAGCG | -0.0794
106 | TACGTCAA | -0.0778
107 | CCGTGACC | -0.127
108 | CTGTGCAA | 0.0109
109 | CAGTACTC | -0.295
110 | CACACATA | 0.0548
111 | AACGGTGT | 0.044
112 | GCAGTGAA | 0.159
113 | ATCAGCGG | -0.0125
114 | AACTTATA | 0.143
115 | ACGAGTAG | 0.149
116 | CAGCACGG | 0.333
117 | ATAAGAAC | 0.118
118 | CACATGAA | 0.0511
119 | TCTTCGAA | -0.0288
120 | CTAAGAAC | -0.0142
121 | CCACCGTA | -0.0503
122 | CTGACGCA | -0.0553
123 | GAAGGCTC | -0.0301
124 | CCCTAGTC | -0.312
125 | AGGCTCTC | -0.137

Row | Sequence | PBM E-score
126 | TATTCTCA | 0.0404
127 | AAATACGG | 0.207
128 | GATTAGCC | 0.138
129 | CAATGCCG | 0.374
130 | ATACCAAT | -0.0455
131 | CTTCGACC | -0.0395
132 | AATTTGCC | 0.157
133 | AATTTACT | 0.214
134 | ACATCGAC | -0.0237
135 | TAGGGTCA | -0.132
136 | TTGCGCAA | 0.0333
137 | TAGGCGGA | -0.096
138 | AGCAGTGC | -0.0948
139 | CGGTGGGC | 0.0372
140 | CAACCTTG | 0.0792
141 | AGAACGTG | 0.0266
142 | AATAACAT | 0.194
143 | CAGGCGCA | -0.031
144 | CTTATTGC | 0.0179
145 | AAGTATGT | -0.0157
146 | AACTTCGA | 0.186
147 | CTCAGATA | 0.0224
148 | ATATCCCG | 0.077
149 | TTCCGCAA | -0.0685
150 | AGGCGCAA | 0.279

Row | Sequence | PBM E-score
151 | ATCCGAAG | -0.142
152 | CCCAGAGG | -0.293
153 | CGCATTTA | 0.119
154 | ATCCCACC | -0.117
155 | CCCGGACG | -0.286
156 | ATCACCAA | 0.00107
157 | AGACCGCC | -0.0258
158 | GTACCCAC | -0.094
159 | CTTGTAGA | -0.211
160 | CAGTTTCA | -0.0566
161 | CGTCTATC | -0.0585
162 | CGAACTAG | 0.0201
163 | GAACCCTC | -0.36
164 | GGTTCCGA | -0.12
165 | CATAGTAC | -0.103
166 | GTATGACA | 0.0959
167 | ATGAGAGC | -0.0075
168 | CTTCCGCC | 0.0555
169 | ATCATTGA | 0.148
170 | GAACTTAA | 0.0354
171 | TTAACGAA | 0.194
172 | AGGCACGC | 0.209
173 | GTTTGCTA | -0.0175
174 | CCACTATC | -0.0893
175 | GTAACATA | 0.0675

Row | Sequence | PBM E-score
176 | CGCCTACC | 0.0802
177 | AACTCTGT | -0.12
178 | AAAATCCA | 0.0868
179 | AATAGGCG | 0.211
180 | GACTACCC | -0.361
181 | AACGGAGG | -0.055
182 | AGCCTGTA | -0.108
183 | GCGTAAGA | 0.0658
184 | AGACGTGC | 0.172
185 | ACGTTTCA | 0.0635
186 | GGGTACAA | -0.0604
187 | CGGCAAAG | 0.264
188 | CGACCGGC | 0.157
189 | AGCATTGC | -0.00935
190 | GCGAACTA | 0.0405
191 | ACCATCAC | -0.02
192 | GCGTTCCC | -0.141
193 | AGACTGCT | -0.305
194 | AGATCTGC | 0.0544
195 | ACATCCTG | 0.0246
196 | AACTAGCA | -0.153
197 | GTTGGTCA | 0.0819
198 | AGTAATCG | 0.0689
199 | GGTATCCA | 0.0649
200 | AAACATCT | -0.0306

Row | Sequence | PBM E-score
201 | ATCACATC | -0.101
202 | AATCTGTA | -0.0269
203 | GGACGTTA | -0.0507
204 | ACTTGATC | -0.113
205 | AGCATAAG | -0.029
206 | GTCCTACA | 0.0933
207 | GTATCGAC | 0.0676
208 | ATTCACCG | 0.0944
209 | CCCAAGGA | -0.137
210 | CTCGCCAC | -0.0166
211 | CATTTAAC | 0.121
212 | AACAATAA | 0.124
213 | ATCACCAT | 0.108
214 | CAACGGGG | -0.104
215 | CCGTCAAG | -0.0143
216 | ACCTCTGA | -0.0406
217 | GAGAGGGC | -0.0876
218 | AAACGCCG | 0.428
219 | AGTCTAAC | -0.0391
